Source: paper PMC5458268
Results are given in words; binding and its absence hold for the method and conditions named. In cells and extracts the contact can be indirect. Some binding calls cover weakened binding; strength is not graded here. For part of these data: Sequences can lack the tags named with a protein.

Protein sequences, listed by entry. Tags and fused reporters are not part of them. Lines headed by an entry give the natural chain unless they say otherwise; changes in a name come on top. Residues count along the entry.
UniProt O60566: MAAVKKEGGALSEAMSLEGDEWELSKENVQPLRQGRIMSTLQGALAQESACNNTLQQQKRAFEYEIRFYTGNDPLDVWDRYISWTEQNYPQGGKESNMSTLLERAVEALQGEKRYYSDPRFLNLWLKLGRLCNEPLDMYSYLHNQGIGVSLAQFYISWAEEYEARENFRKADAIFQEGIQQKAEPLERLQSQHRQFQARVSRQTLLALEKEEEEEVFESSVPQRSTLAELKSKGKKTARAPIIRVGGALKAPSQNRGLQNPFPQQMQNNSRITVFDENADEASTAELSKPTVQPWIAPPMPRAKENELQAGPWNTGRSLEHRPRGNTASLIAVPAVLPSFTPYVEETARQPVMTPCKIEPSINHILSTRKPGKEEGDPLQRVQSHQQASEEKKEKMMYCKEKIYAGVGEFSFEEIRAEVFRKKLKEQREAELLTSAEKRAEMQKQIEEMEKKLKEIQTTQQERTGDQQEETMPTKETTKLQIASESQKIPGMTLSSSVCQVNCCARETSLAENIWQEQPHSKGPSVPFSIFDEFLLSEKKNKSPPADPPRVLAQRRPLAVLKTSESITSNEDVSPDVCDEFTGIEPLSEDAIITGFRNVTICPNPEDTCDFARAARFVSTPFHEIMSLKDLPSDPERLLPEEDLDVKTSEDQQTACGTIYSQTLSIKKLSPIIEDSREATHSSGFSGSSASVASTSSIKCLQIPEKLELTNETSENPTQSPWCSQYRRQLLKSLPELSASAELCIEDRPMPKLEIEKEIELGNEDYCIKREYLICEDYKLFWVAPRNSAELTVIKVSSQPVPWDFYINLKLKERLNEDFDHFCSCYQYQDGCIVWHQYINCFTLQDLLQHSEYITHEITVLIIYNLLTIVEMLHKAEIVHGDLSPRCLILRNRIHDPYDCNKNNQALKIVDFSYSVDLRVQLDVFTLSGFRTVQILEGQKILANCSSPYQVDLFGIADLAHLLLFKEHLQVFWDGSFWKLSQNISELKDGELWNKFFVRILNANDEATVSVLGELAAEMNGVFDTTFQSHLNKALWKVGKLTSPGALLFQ
GST-BubR1 central region (amino acids 201-500): residues 201-500 of O60566
UniProt O43684: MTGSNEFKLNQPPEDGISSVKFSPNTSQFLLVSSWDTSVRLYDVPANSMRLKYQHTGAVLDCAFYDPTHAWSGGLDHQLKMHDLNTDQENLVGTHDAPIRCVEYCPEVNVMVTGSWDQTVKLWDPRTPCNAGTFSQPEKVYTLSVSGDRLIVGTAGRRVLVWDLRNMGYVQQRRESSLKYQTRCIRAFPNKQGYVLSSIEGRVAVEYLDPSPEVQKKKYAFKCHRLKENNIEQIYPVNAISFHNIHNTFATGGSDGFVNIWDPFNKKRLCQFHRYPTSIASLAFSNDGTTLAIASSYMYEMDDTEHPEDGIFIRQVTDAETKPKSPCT

Key:
[1] = target: T1, Myc-Peli1 COOH-terminal fragment (amino acids 281-418) (human) (UniProt Q96FA3); assay: co-IP; HeLa cells co-transfected with Myc-Peli1 (full length or deletion mutants) and Flag-BubR1, nocodazole 200 ng/ml for 24 hr; precipitated with anti-Myc, blotted with anti-Flag
T1 sequence: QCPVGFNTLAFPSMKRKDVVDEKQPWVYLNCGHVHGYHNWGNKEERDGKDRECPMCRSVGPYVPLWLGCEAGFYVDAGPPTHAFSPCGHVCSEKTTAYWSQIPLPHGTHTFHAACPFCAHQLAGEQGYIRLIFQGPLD

[2] = target: T2, Myc-Peli1 NH2-terminal fragment (amino acids 1-280) (human) (UniProt Q96FA3); assay: as above
T2 sequence: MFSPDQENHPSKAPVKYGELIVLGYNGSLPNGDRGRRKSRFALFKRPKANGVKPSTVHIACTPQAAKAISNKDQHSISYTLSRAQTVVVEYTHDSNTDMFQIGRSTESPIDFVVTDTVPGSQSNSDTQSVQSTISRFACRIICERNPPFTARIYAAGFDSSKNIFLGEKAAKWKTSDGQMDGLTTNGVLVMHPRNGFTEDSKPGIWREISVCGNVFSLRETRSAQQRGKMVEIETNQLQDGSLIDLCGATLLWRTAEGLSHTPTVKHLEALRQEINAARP

GST-Peli1 (human) [3] = target: T3, GST-Peli1 (human) (UniProt Q96FA3); assay: pull-down; beads bound to GST-Peli1 incubated with lysate of the floating population (mitotic shake-off) of nocodazole-synchronised HeLa cells; blot for BubR1; only the target purified
T3 sequence: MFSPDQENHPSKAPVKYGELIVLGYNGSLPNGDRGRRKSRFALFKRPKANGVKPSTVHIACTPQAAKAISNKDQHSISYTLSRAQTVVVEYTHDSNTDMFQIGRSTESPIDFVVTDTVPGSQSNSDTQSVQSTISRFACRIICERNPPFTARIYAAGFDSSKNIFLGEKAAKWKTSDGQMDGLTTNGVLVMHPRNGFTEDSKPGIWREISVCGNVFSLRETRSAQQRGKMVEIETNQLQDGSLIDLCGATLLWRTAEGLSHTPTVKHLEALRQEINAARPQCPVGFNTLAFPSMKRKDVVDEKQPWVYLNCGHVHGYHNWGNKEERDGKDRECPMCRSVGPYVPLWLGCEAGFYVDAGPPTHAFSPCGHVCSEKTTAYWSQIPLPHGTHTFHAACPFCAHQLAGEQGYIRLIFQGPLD

GST-Peli1 (human) [4] = target: T3, GST-Peli1 (human); assay: pull-down; beads bound to GST-Peli1 incubated with lysate of the attached population (considered non-mitotic) of nocodazole-treated HeLa cells; blot for BubR1; only the target purified
[5] = target: BubR1 (human (endogenous in Ramos)) (UniProt O60566); assay: co-IP; endogenous proteins; Ramos cells synchronised with nocodazole for 18 hr; lysates precipitated with anti-BubR1 or anti-Peli1 antibody, blotted with anti-Peli1 and anti-Bub3 or anti-BubR1
[6] = target: GST-BubR1 central region (amino acids 201-500) (UniProt O60566); assay: pull-down; purified GST-BubR1 deletion mutants incubated with extracts of nocodazole-synchronised Ramos cells; blot with anti-Peli1 or anti-Bub3; only the target purified

Flag-BubR1 (from UniProt O60566 1-1050)
binding [1]: binds | binding [2]: no binding

BubR1 (from UniProt O60566 1-1050)
binding (GST-Peli1 (human) [3]): binds | binding (GST-Peli1 (human) [4]): binds weakly

Bub3 (from UniProt O43684 1-328)
binding [5]: binds | binding [6]: binds
